# Measured values taken from PubChem BioAssay AID2546 (National Center for Advancing Translational Sciences (NCATS), 2010).
# Out of some 310,000 compounds screened, about 11,000 (3.5%) were called active. The shares of active, inactive and inconclusive entries below differ from those in the screen. Calls come from the whole dose curve; as a rule, active = well fitted inhibition curve with a large enough effect; inconclusive = small, poorly fitted or top-dose-only effect, or effect the other way; inactive = flat fitted curve, though single readings scatter. Potencies of inconclusive entries are left out as doubtful fits. A structure can be active in one record and inactive in another.
# Assay: VP16 counterscreen qHTS for inhibitors of ROR gamma transcriptional activity;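 note: Gal4-VP16 expression switched on by copper sulfate through the metallothionein promoter; nearly all actives have a fitted effect of over 50% in size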
# Details: Drosophila S2 Gal4-VP16 UAS-luciferase, luminescence, 20 h; series mostly up to 53.6 µM
# Potency is the fitted concentration of half-maximal effect; tags give direction and shape of the fitted curve.
row,SMILES,Potency
1,COc1ccc(-n2cc(-c3ccccc3)[nH]c2=S)c(OC)c1,active: 7.94 µM
2,COc1ccc(-c2cnnc(N/N=C/C(C)=C/c3ccccc3)n2)cc1,inactive
3,CCOc1ccc(C2c3cc(OC)c(OC)cc3CC(=O)N2c2ccc(OC)cc2)cc1 (stereo not given),inactive
4,COCCNC(=S)N/N=C(\C)CCc1ccc2c(c1)OCO2,active: 10 µM
5,Cc1cccc(C(=O)Nc2ccc(CC(=O)O)cc2)c1,"inconclusive [inhibitor, partial curve]"
6,COc1ccc(N2CCN(C(c3ccccc3OC)c3nnnn3C3CCCC3)CC2)cc1 (stereo not given),inactive
7,Cc1nc2c(=O)n(C)c(=O)n(C)c2nc1Cl,active: 7.08 µM
8,CCCCC(=O)Nc1ccc(NC(=S)NC(=O)CCCCl)cc1OC,"inconclusive [inhibitor, single point]"
9,Cc1ccccc1C(=O)Nc1ccc2c(c1)OCCO2,"inconclusive [inhibitor, partial curve]"
10,CCC(C)(C)NC(=O)CCCSc1nc2ccccc2[nH]1,inactive
11,CC(=O)Nc1ccc(OC(=O)N2CCCC2)cc1,inactive
12,COCCn1c(C)nnc1SCC(=O)Nc1ccccc1[N+](=O)[O-],inactive
13,OC(COCC1CC=CCC1)Cn1cnc2ccccc21 (stereo not given),"inconclusive [inhibitor, single point]"
14,NC(=O)c1ccc(NC(=O)C#Cc2ccccc2)cc1,"inconclusive [inhibitor, single point]"
15,Cc1cc(C(=O)CCl)c(C)n1Cc1ccco1,active: 17.8 µM
16,O=C(N/N=C/c1ccc(COc2ccc(Br)cc2)o1)c1ccco1,"inconclusive [inhibitor, single point]"
17,CC1=C(C(=O)OCC2CCCO2)C(c2ccc(C)cc2)C2=C(CC(C)(C)CC2=O)N1 (stereo not given),inactive
18,Fc1ccccc1-c1csc(=Nc2cccnc2)n1CC1CCCO1 (stereo not given),active: 7.08 µM
19,CC(C)(C)OC(=O)N1CCNc2ccccc2C1,"inconclusive [inhibitor, partial curve, poor fit]"
20,O=C(Nc1cccnc1)c1ccc(S(=O)(=O)c2ccc(Cl)cc2)cc1,"inconclusive [inhibitor, single point]"
21,O=C(N/N=C/c1ccc2c(c1)OCO2)c1cc(-c2ccccc2)nc2ccccc12,"inconclusive [inhibitor, single point]"
22,Cc1cc(C)n2ncc(/C(N)=N/OC(=O)c3ccccc3F)c2n1,"inconclusive [inhibitor, partial curve, poor fit]"
23,O=S(=O)(c1ccc2ccccc2c1)N1CCC(c2nc(-c3ccncc3)no2)CC1,"inconclusive [inhibitor, single point]"
24,CC/C(=C(\c1ccccc1)c1ccc(OCCN(C)C)cc1)c1ccccc1,active: 31.6 µM
25,Cc1ccc2c(c1)c1c3n2CCN=C3CCC1,"inconclusive [inhibitor, single point]"

row,SMILES,Potency
1,CC(C)=C(NC(=O)c1ccccc1)C(=O)N/N=C(\C)c1ccccc1O,active: 2.51 µM
2,O=S(=O)(CC(CN1CCCCC1)N1CCCCC1)c1ccc2ccccc2c1 (stereo not given),"inconclusive [inhibitor, partial curve, poor fit]"
3,CN(C)c1cccc(-c2nnc(SCCCC#N)o2)c1,"inconclusive [inhibitor, single point]"
4,CN(C)c1cccc(C(=O)OCc2cc(=O)oc3cc(O)ccc23)c1,"inconclusive [inhibitor, partial curve]"
5,COc1ccc(C2NN=C(c3ccc(C)cc3)S2)cc1 (stereo not given),active: 7.08 µM
6,O=C(Nc1cccc(C(F)(F)F)c1)c1ccco1,"inconclusive [activator, single point]"
7,CCOC(=O)c1cccc(NC(=S)NCc2ccc(C)cc2)c1,"inconclusive [inhibitor, single point]"
8,C/C(=N\NC(=O)c1ccccc1O)c1cccs1,"inconclusive [inhibitor, single point]"
9,CCOC(=O)C1(Cc2cccc(OC)c2)CCCN(C(=O)CCN2CCCO2)C1 (stereo not given),"inconclusive [inhibitor, partial curve]"
10,Cc1cc2oc(=O)cc(CNc3ccccc3F)c2cc1O,"inconclusive [inhibitor, single point]"
11,CCOc1ccc(-c2cc(CCCC(=O)NCCCOC)no2)cc1,"inconclusive [inhibitor, full curve]"
12,CCOC(=O)Cc1csc(NC(=S)NC(=O)c2cccc([N+](=O)[O-])c2)n1,"inconclusive [inhibitor, single point]"
13,CC(=O)Nc1nc2ccccc2n1Cc1ccccc1,active: 5.62 µM
14,CC(C)(C)Cc1nc2ccccc2n1CCc1ccccc1,active: 15.8 µM
15,Fc1ccccc1COc1ccc(Br)cc1CNCc1ccncc1,"inconclusive [inhibitor, single point]"
16,O=C(O)c1cccc(-c2nc3ccccc3[nH]2)c1,"inconclusive [inhibitor, single point]"
17,COc1ccc(-c2ccc(SC)nn2)cc1,"inconclusive [inhibitor, partial curve, poor fit]"
18,NC(=S)NC1CC2CC1C1C=CCC21 (stereo not given),inactive
19,Cc1cc(S(=O)(=O)NC2CCCCC2)ccc1OCC(=O)N1CCOCC1,inactive
20,O=C(/C=C/c1c(Cl)nc2ccccn12)Nc1ccc(F)cc1,"inconclusive [inhibitor, single point]"
21,CCCC(=O)Nc1ccc(NC(=O)c2cccc(OC)c2)cn1,inactive
22,CN1CCN(c2ccc(NC(=S)NC(=O)c3cccc4c(Br)cccc34)cc2)CC1,inactive
23,CCCN1C(=O)c2ccc(C(=O)Nc3nccs3)cc2C1=O,"inconclusive [inhibitor, single point]"
24,NC(=O)C1CCCN(S(=O)(=O)c2ccc(Br)cc2)C1 (stereo not given),"inconclusive [activator, single point]"
25,NC(=O)c1ccsc1NC(=O)c1coc2ccccc2c1=O,inactive
